Source: PubChem BioAssay AID485290 (National Center for Advancing Translational Sciences (NCATS), 2010)
About 990 (0.28%) of roughly 350,000 compounds were called active. Inconclusive results, whose numbers are uncertain, are shown with a selection of clear calls. The call rests on the fitted dose curve; in most records, active means well fitted inhibition curve with a large enough effect; inconclusive means small, poorly fitted or top-dose-only effect; inactive means no such curve, though single readings can be large or run the other way. Potencies of inconclusive entries are doubtful fits and often do not repeat.

Each compound was assayed against Tyrosyl-DNA phosphodiesterase 1 (Homo sapiens) (UniProt Q9NUW8) (assay: qHTS Assay for Inhibitors of Tyrosyl-DNA Phosphodiesterase (TDP1)). Details: recombinant TDP1, AlphaScreen DNA substrate cleavage; activity change, negative = inhibition: at 130 µM (top of the series) unless noted.
Description: NIH Molecular Libraries Probe Production Network [MLPCN]
NIH Chemical Genomics Center [NCGC]
Assay Provider: Yves Pommier and Christophe Marchand, National Cancer Institute
Assay Title: qHTS Assay for Inhibitors of Tyrosyl-DNA Phosphodiesterase (TDP1); further: nearly all actives have a fitted effect of over 40% in size
Human tyrosyl-DNA phosphodiesterase I (Tdp1) is a rational anticancer target because this enzyme is involved in the repair of DNA lesions created by the trapping of human DNA topoisomerase I (Top1) following treatment by anticancer agents such as camptothecins. Recombinant Tdp1 was expressed and purified from E. coli in the laboratory (Anthony et al, Nucleic Acids Research, 2007, Vol. 35, 4474-4484). A Tdp1 DNA substrate bearing a 5' biotin and a 3' phospho-tyrosine was obtained by custom synthesis. This oligonucleotidic DNA substrate was subsequently coupled to a fluorescein isothiocyanate (FITC) group via the free amino group present on the phospho-tyrosine. Tdp1 was screened against the NCGC small molecule library using the AlphaScreen (AS) detection method in which a streptavidin donor AS bead is bound at the 5' end and an anti-FITC AS acceptor bead is bound at the 3' end of the DNA oligonucleotidic substrate. In the presence of Tdp1, the enzyme cleaves the tyrosine-FITC group, leaving a 3' end phosphate on the DNA substrate. This cleavage reaction results in a loss of signal in AS.
[1] 3 ul of buffer is dispensed in columns 3 & 4 as negative control (no enzyme and maximum signal),
[2] 3 ul of enzyme (1 nM final) is dispensed in columns 1,2, 5-48,
[3] 1 ul of substrate (15 nM final) is dispensed throughout the plate,
[4] 1 ul of AS donor/acceptor bead mix (10 ug/ml final) is dispensed throughout the plate
3 ul of Tdp1 enzyme is dispensed to 1536-well Kalypsys black solid bottom plates. Compounds and controls (23 nl) are transferred via Kalypsys Pin Tool. The plates are incubated for 15 min at room temperature, and then 1 ul of substrate is added to start the reaction. After 5 min incubation at room temperature, 1 ul of AS donor/acceptor bead mix is added and the plates are further incubated for 10 min at room temperature. The detection is then performed on a PerkinElmer Envision reader.
On the % scale 0 is the no-effect control and ±100 the full control effect; potency means the concentration at half of the fitted maximal effect; tags describe the fitted curve by direction and shape.

Sequence of UniProt Q9NUW8 (Q9NUW8 whole entry, looked up): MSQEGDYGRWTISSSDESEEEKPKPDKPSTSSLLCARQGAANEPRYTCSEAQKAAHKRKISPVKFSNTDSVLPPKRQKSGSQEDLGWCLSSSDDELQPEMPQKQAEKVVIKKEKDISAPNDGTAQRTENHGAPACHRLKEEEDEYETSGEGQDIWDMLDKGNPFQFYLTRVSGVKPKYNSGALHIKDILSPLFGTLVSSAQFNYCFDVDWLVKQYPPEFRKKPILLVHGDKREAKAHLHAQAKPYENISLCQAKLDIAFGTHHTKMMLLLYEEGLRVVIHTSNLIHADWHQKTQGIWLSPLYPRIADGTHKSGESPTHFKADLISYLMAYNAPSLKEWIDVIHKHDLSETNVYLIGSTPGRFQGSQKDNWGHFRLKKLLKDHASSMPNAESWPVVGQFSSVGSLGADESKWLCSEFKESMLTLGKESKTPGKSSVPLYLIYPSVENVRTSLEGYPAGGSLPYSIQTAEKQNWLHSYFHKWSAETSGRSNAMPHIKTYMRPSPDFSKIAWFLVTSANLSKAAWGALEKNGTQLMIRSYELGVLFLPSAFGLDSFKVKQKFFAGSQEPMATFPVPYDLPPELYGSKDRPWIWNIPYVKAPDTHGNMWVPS

SMILES	Potency	activity change, negative = inhibition
Cc1cc(C=O)c(C)n1-c1cccc(C(=O)O)c1	active: 5.01 µM	
CC(=O)N[C@@H]1C(O)OC(CO)C(O)C1O (stereo not given in full)	inconclusive: 0.562 µM [inhibitor, full curve, poor fit]	
Clc1ccc(Cn2nnc3ccccc32)cc1	inconclusive: 35.5 µM [inhibitor, single point]	
CC(=O)Nc1ccc(-c2nnc(SCc3ccc(C)cc3)n2C)cc1	inactive	
CCOc1cc2c(cc1/C=C(/C#N)c1ccc(C(=O)O)cc1)OCO2	inconclusive: 20 µM [inhibitor, full curve]	
O=C1CC(c2ccco2)CC(O)=C1C=NCC1CCNCC1 (stereo not given)	inconclusive: 22.4 µM [inhibitor, partial curve]	
COc1ccc(CCN=C(N)NS(=O)(=O)c2ccc(OC)c(OC)c2)cc1OC	inactive	
CCCCn1c(N)c(N(CCC(C)C)C(=O)CC2OC(=O)c3ccccc32)c(=O)[nH]c1=O (stereo not given)	inconclusive: 35.5 µM [inhibitor, partial curve]	
O=C(NC1CCCCC1)N1CCN(Cc2ccco2)CC1	inactive	
CCCNC(=O)COC(=O)c1ccc(Cl)c(S(=O)(=O)N2CCCC2)c1	inconclusive: 63.1 µM [inhibitor, partial curve]	
COc1ccc(/C=C2\SC(=S)N(CCCC(=O)Nc3ccc(C(=O)O)cc3)C2=O)cc1OC	active: 50.1 µM	
COc1ccc(OC)c(CNC(=O)Cn2nc(C)c3c(C)n(-c4ccc(C)cc4)nc3c2=O)c1	inconclusive: 50.1 µM [inhibitor, partial curve]	
O=C(O)c1cccc(NC(=O)c2ccc3c(c2)C(=O)N(Cc2ccco2)C3=O)c1	active: 50.1 µM	
COc1ccc(CCNC(=O)COc2ccc(N(C)S(=O)(=O)c3ccc(C)cc3)cc2)cc1	inactive	
O=C(NCC(=O)N1CCCC1C(=O)O)OC1CCCCC1 (stereo not given)	inconclusive: 44.7 µM [inhibitor, single point]	
O=C(CCN1C(=O)/C(=C/c2ccc(Cl)cc2)SC1=S)NC1C=CS(=O)(=O)C1 (stereo not given)	inconclusive: 56.2 µM [inhibitor, partial curve]	
Cc1cc(C)c(S(=O)(=O)c2c(C)cccc2C)c(Cl)n1	inactive	
Cc1cc(C)nc(-n2nc(C)cc2NC(=O)CN2CCCC(C)C2)n1 (stereo not given)	inactive	
O=C(O)c1ccc(Cl)c2c1C1C=CCC1C(c1ccccn1)N2 (stereo not given)	inconclusive: 3.98 µM [inhibitor, full curve]	
O=C(O)c1ccccc1C(=O)Nc1ccc(S(=O)(=O)N2CCCC2)cc1	inconclusive: 4.47 µM [inhibitor, single point]	
Cc1noc(C)c1-c1nc(NCc2cccnc2)c2ccccc2n1	inconclusive: 20 µM [inhibitor, partial curve]	
COc1ccc(C2CC(=O)N(CCCN(C)CCc3ccc(OC)c(OC)c3)C2)cc1 (stereo not given)	inconclusive: 56.2 µM [inhibitor, partial curve, poor fit]	
COc1cc(/C=C(\C#N)C(=O)Nc2cccc(C(=O)O)c2)ccc1OCc1ccc(F)cc1	active: 56.2 µM	

SMILES	Potency	activity change, negative = inhibition
COc1cccc(C#Cc2c(C=O)n(C)c3ccccc23)c1	active: 17.8 µM	
Cc1cc(C)c2c(n1)sc1c(O)cc(=O)[nH]c12	active: 22.4 µM	
O=c1c2ccccc2nnn1Cc1ccccc1Cl	inconclusive: 44.7 µM [inhibitor, single point]	
COc1ccc(CNC(c2ccccc2)c2ccc(Cl)cc2)cc1 (stereo not given)	inconclusive: 89.1 µM [inhibitor, single point]	
COc1ccc(N2CCN(C(=O)c3nn(-c4ccc(C)cc4)c(=O)n(C)c3=O)CC2)cc1	inactive	
C(=N\Nc1nc(N2CCOCC2)nc(N2CCOCC2)n1)/c1ccco1	inconclusive: 20 µM [inhibitor, partial curve]	
O=C(COc1ccc(C(=O)c2ccccc2)cc1)Nc1cccnc1	inconclusive: 89.1 µM [inhibitor, single point]	
CC(=O)Oc1c2c(c3c(c1CC=C(C)C)O[C@@]14C(=CC5CC1C(C)(C)OC4(C/C=C(\C)C(=O)O)C5=O)C3=O)OC(C)(CCC=C(C)C)C=C2 (stereo not given in full)	inconclusive: 31.6 µM [inhibitor, partial curve]	
CCOc1ccccc1OCCCC(=O)ON=C(N)c1ccccc1	inconclusive: 56.2 µM [inhibitor, partial curve]	
CC(=O)OCC(=O)[C@@]1(O)CC[C@@H]2[C@H]3CCC4=CC(=O)CC[C@]4(C)[C@]3(F)[C@@H](O)C[C@@]21C		inactive: 13.3% [at 21 µM]
C=CCN(CC=C)S(=O)(=O)c1ncn[nH]1	active: 39.8 µM	
C/C(=N\NC(=O)c1ccccc1)c1ccc2c(c1)OCO2	inconclusive: 44.7 µM [inhibitor, single point]	
O=C1CC(=O)N(Cc2ccco2)C(=S)N1	active: 2.51 µM	
Cc1nn(CC(=O)NC2(C)CCS(=O)(=O)C2)c(C)c1S(=O)(=O)N(C)C (stereo not given)	inactive	
COc1ccc(CCNc2nc3c(c(=O)n(C)c(=O)n3C)n2Cc2ccccc2Cl)cc1OC	inactive	
CCSc1nnc(SCC(=O)Nc2cc(C)on2)s1	inconclusive: 28.2 µM [inhibitor, full curve]	
Cc1cc2c(cc1S(=O)(=O)Nc1cccc(Cl)c1C)OCCN2C	inactive	
O=C(CSc1nc(-c2ccc(F)cc2)nc2c1Cc1ccccc1O2)Nc1ccc(C(=O)O)cc1	active: 5.01 µM	
NS(=O)(=O)c1ccc(CCNS(=O)(=O)c2cccc(C(=O)O)c2)cc1	active: 79.4 µM	
CC(C)CC(=O)N[C@H](C(=O)N[C@H](C(=O)N[C@@H](CC(C)C)[C@@H](O)CC(=O)N[C@@H](C)C(=O)N[C@@H](CC(C)C)[C@@H](O)CC(=O)O)C(C)C)C(C)C	inconclusive: 79.4 µM [inhibitor, single point]	
CC(=O)OC1CC2CCC1(C)C2(C)C (stereo not given)	inactive	
COc1cc(/C=C(\C(=O)O)c2ccc(S(=O)(=O)N3CCCC3)s2)cc(OC)c1	inconclusive: 56.2 µM [inhibitor, partial curve, poor fit]	
